We go through seven molecules from article PMC10963788.

These are yes or no findings as the source states them, for the method shown. For part of these data: In cells and extracts the contact can be indirect. Some entries that bind do so weakly or less than the wild type. For part of these data: Sequences can lack the tags named with a protein.

The target of assay [1] is T1, synaptosomal-associated protein 29 (SNAP29), mouse, endogenous (mouse (endogenous in mouse brain tissue, SIM-A9 cells and hippocampal slice cultures)) (UniProt Q9ERB0).
T1 sequence: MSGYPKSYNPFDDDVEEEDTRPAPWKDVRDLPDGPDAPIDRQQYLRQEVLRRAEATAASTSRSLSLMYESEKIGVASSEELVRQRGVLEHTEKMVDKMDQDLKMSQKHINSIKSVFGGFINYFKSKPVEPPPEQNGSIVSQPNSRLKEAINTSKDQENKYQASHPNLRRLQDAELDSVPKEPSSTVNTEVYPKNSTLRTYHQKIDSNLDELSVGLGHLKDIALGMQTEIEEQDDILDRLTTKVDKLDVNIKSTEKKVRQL
Description: co-IP; SNAP29 IP from tissue homogenates of the mouse hippocampus.

The target of assay [2] is T2, vesicle-trafficking protein SEC22B, mouse, endogenous (mouse (endogenous in mouse brain tissue, SIM-A9 cells and hippocampal slice cultures)) (UniProt O08547).
T2 sequence: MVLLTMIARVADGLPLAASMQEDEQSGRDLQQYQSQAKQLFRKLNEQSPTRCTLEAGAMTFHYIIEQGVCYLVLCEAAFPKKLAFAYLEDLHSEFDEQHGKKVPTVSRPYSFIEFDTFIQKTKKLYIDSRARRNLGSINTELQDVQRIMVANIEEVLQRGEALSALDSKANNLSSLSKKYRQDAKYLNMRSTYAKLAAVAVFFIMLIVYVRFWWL
Description: co-IP; SEC22B IP or SNAP29 IP from SIM-A9 cell lysates (Co-IP buffer: 20 mM tris-HCl pH 8.0, 100 mM NaCl, 1 mM EDTA, 0.5% Igepal); cells with Ska2 knockdown, Ska2 overexpression, Fkbp5 overexpression, Fkbp5 knockout or their controls; western blot, quantified.

Assay [3] concerns the target T3, spindle and kinetochore-associated complex subunit 2 (SKA2), mouse, endogenous (mouse (endogenous in mouse brain tissue and SIM-A9 cells)) (UniProt Q9CR46).
T3 sequence: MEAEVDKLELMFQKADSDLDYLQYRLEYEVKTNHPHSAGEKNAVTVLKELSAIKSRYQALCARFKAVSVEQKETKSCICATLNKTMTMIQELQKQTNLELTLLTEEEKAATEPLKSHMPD
Description: co-IP; SKA2 IP from mouse prefrontal cortex, hippocampus and amygdala tissue lysates; 2.5 μg antibody overnight at 4 °C, protein G Dynabeads, washed with PBS; western blot.

Assay [4] deals with T2, vesicle-trafficking protein SEC22B, mouse, endogenous (mouse (endogenous in mouse brain tissue, SIM-A9 cells and hippocampal slice cultures)). Description: co-IP; protein lysates of mouse organotypic hippocampal slice cultures, with Ska2 knockdown or control; precipitating antibody not stated for this experiment.
Assay [5] deals with T4, HIS-SKA2 (Abcam, AB199577-1001) (UniProt Q8WVK7).
T4 sequence: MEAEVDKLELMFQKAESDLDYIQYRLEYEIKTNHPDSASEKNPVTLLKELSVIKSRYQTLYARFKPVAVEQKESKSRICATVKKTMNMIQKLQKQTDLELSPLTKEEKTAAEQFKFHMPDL
Description: pull-down; HIS pull-down: 200 ng HIS-SKA2 immobilised on BSA-blocked anti-His protein G Dynabeads; 100 ng purified DDK-tagged protein; 400 μl binding buffer (Promega, V870B); eluted at room temperature and at 95 °C; western blot against HIS and FLAG; both purified.

Assay [6] deals with T1, synaptosomal-associated protein 29 (SNAP29), mouse, endogenous (mouse (endogenous in mouse brain tissue, SIM-A9 cells and hippocampal slice cultures)). Description: co-IP; SEC22B IP or SNAP29 IP from SIM-A9 cell lysates (Co-IP buffer: 20 mM tris-HCl pH 8.0, 100 mM NaCl, 1 mM EDTA, 0.5% Igepal); cells with Ska2 knockdown, Ska2 overexpression, Fkbp5 overexpression, Fkbp5 knockout or their controls; western blot, quantified.

B1: SKA3, mouse, endogenous (protein, UniProt Q8C263 1-411)
chain: MNPIQSFHCKLRGLATTLDSETARLLRALDGEDSDFEDSPGRILHDLHSEVQTLKDNVNALLDEARLENQESTRFKKATKILMEKNSADVRKLREFFQKYGYQARDKEDSGCEHRVNNSTPELAVCKDIQKAGVKELSDPCVPSGSVSEEPLRSPQLSDFGLQRYIISQVPANPPQTAASLKEERVAETPPAKDPSVQVLKTPRCALRMDDFECETPKLEHFGISEHTMCLNEDYTMGLKNMKNIKSSLLSGVSGEAIGTGPVTSDNSFAIPGPIIQQMEENDVEYVSSPLPPKFCTPGLKIPSTMDRTDLVSIDYPLSKPNSSSTDLEIKDCVPLILNSDECYQSFAEPPSSAITSCENFATPSPPKVTAIPEDILQMITKHSSNLASPLDVKVMPRRKGTRGAANKENW
Turning to B1, in assay [1], the binding result is listed as “no binding”.

B2: syntaxin 3 (STX3), mouse, endogenous (protein, UniProt Q64704 1-289)
chain: MKDRLEQLKAKQLTQDDDTDEVEIAIDNTAFMDEFFSEIEETRLNIDKISEHVEEAKKLYSIILSAPIPEPKTKDDLEQLTTEIKKRANNVRNKLKSMEKHIEEDEVRSSADLRIRKSQHSVLSRKFVEVMTKYNEAQVDFRERSKGRIQRQLEITGKKTTDEELEEMLESGNPAIFTSGIIDSQISKQALSEIEGRHKDIVRLESSIKELHDMFMDIAMLVENQGEMLDNIELNVMHTVDHVEKARDETKRAMKYQGQARKKLIIIIVVVVVLLGILALIIGLSVGLK
As to B2, the binding entry in assay [2] is “binds”.

B3: vesicle-trafficking protein SEC22B, mouse, endogenous (protein, UniProt O08547 1-215)
chain: T2 sequence
Take B3: the binding entry in assay [3] is “binds”.

B4: SKA1, mouse, endogenous (protein, UniProt Q9CPV1 1-254)
chain: MDSELEDLCSYVNEKIGNIKKILSIRNLGQDPALKTTLSKIGDEIIAVNELLNKFELEIQYQEQTNSSLKELCESLREECEDVEHLKEHVPPHLPQVTATQSLVHKPEPDPKESDKAEEPGLPKKPPREQRIIKEMQFITMDEFSDVPAYMKSRLTYCQINDIIKEINKAVVSKYKIMHQPKASMSSVKRNLYQRFINEETKDTKGHHFIVEADIKEFTALKVDKRFYVIMHILRHCHRLSEVRGGGLTRYVIT
In the case of B4, the binding result in assay [1] is listed as “no binding”.

B5: synaptosomal-associated protein 29 (SNAP29), mouse, endogenous (protein, UniProt Q9ERB0 1-260)
chain: T1 sequence
On to B5, for which the binding result in assay [4], in assay [3] and in assay [2] was “binds” in each case.

B6: SNAP23-DDK (Origene, TP301596) (protein, UniProt O00161 1-211)
chain: MDNLSSEEIQQRAHQITDESLESTRRILGLAIESQDAGIKTITMLDEQKEQLNRIEEGLDQINKDMRETEKTLTELNKCCGLCVCPCNRTKNFESGKAYKTTWGDGGENSPCNVVSKQPGPVTNGQLQQPTTGAASGGYIKRITNDAREDEMEENLTQVGSILGNLKDMALNIGNEIDAQNPQIKRITDKADTNRDRIDIANARAKKLIDS
As for B6, in assay [5], the binding entry is listed as “no binding (tested: 100 ng in 400 μl)”.

B7: spindle and kinetochore-associated complex subunit 2 (SKA2), mouse, endogenous (protein, UniProt Q9CR46 1-120)
chain: T3 sequence
B7: the binding result in assay [6] is listed as “binds”.
